The values below come from ChEMBL document CHEMBL5308541, “MAIP: An Open-Source Tool to Enrich High-Throughput Screening Output and Identify Novel, Druglike Molecules with Antimalarial Activity” (ACS Med Chem Lett, 2023).

About 540 (0.36%) of roughly 150,000 compounds showed an effect of 50% or more. Some of the results follow.

The test relates to Plasmodium falciparum. Description: Primary screen in NF54 nanoGlo assay, in single point, at 2uM, 72h; a lower Z score goes with more inhibition. It counts as functional, Erythrocyte. The conditions noted are these: timepoint 72 hour.
What is called % Inhibition is the drop in the measured response relative to a control, in per cent. Consider `CC(C)(O)C#Cc1ccc(CN(CC2CCN(C3CCCC3)CC2)C[C@H]2CCCO2)cc1`, for which the “% Inhibition” value was -11% and the Z score is recorded as 1.92.
For `c1cn(CCOc2ccc(CN3CCCC[C@@H]3CN3CCCC3)cc2)cn1`, in that order: 12% and -2.07.
Consider `FC(F)(F)c1nc(Nc2cccc(Cl)c2)sc1-c1ccccc1`, for which the “% Inhibition” value is reported as -16% and the Z score is given as 2.73.
The corresponding values for `N#Cc1ccc(N2CCC[C@H](N3CCN(CCN4CCCOCC4)CC3)C2=O)cc1` are -12% and 2.09.
For the molecule `CN1CCC(CN2CCN(Cc3c[nH]nc3-c3cccc(F)c3)CC2)CC1`, the “% Inhibition” value worked out at 18% and the Z score is given as -3.15.
For `CCOC(=O)c1nn(C)cc1CN1CCC[C@@H]1C(=O)OC(C)(C)C`, in that order: 13% and -2.84.
In the case of `Fc1cnc(NC2CCN(C[C@H]3CCOC3)CC2)nc1`, the “% Inhibition” value came to 6% and the Z score is recorded as -0.91.
As to `CCn1cc(O[C@@H]2CN(c3ncnc4[nH]ccc34)C[C@H]2O)cn1`, the “% Inhibition” value is -3% and the Z score was 0.4.
Turning to `O[C@@H](CN(c1ccccc1)c1ccccc1)Cn1cnc(-c2ccccc2)c1-c1ccccc1`, the “% Inhibition” value was determined as 8% and the Z score is reported as -1.68.
For `CCc1nc(NCc2cc3ccc(F)cc3[nH]c2=O)c2cnn(C)c2n1`, in that order: -5% and 0.81.
The corresponding values for `Fc1ccc2oc(N[C@H]3CCN(CCN4CCOCC4)C3)nc2c1` are -7% and 1.01.
On to `CS(=O)(=O)N1CCc2c(ccc(C(=O)O)c2N)C1`, for which the “% Inhibition” value is listed as -2% and the Z score is recorded as 0.47.
For `Fc1cnccc1NCC[C@H]1CCCCN1Cc1ccccc1`, in that order: -14% and 2.48.
For `COc1ccc2c(C(=O)NCCc3noc(C4CCC4)n3)cc(C)nc2c1`, in that order: -6% and 1.03.
The corresponding values for `Cc1c(CNC2CCN(Cc3cccs3)CC2)[nH]c2ccccc12` are 2% and -0.35.
Turning to `O=C(CC1CCCCC1)N(CCCN1CCCC1)[C@H]1CCCNC1`, the “% Inhibition” value is 6% and the Z score is on record as -0.99.
In the case of `Cc1cc(N[C@H]2CCCN(C)C2)nc2ccc(F)cc12`, the “% Inhibition” value stood at 5% and the Z score is -0.98.
Turning to `COc1cccc2ccc(N[C@H]3CCCN(C4Cc5ccccc5C4)C3)nc12`, the “% Inhibition” value is listed as 0% and the Z score is given as -0.02.
As to `COc1ccccc1COc1cc(NC(=O)[C@H]2CCCN(c3cc(-n4ccnc4)ncn3)C2)ncn1`, the “% Inhibition” value is recorded as -15% and the Z score is on record as 2.56.
For `CC(=O)N1CCC(CNc2cc(Nc3ccccc3)nc(C)n2)CC1`, in that order: 0% and 0.04.
For `COc1cccc2[nH]cc(CC(=O)Nc3cc(-c4cccnc4)n[nH]3)c12`, in that order: 1% and -0.21.
The corresponding values for `C#CCN1CCC(NCCN2CC[C@H](c3ccccc3)C2)CC1` are -3% and 0.55.
Regarding `CCN(C(=O)c1cncc2ccccc12)[C@H]1CCOC(C)(C)C1`, the “% Inhibition” value is recorded as -12% and the Z score is on record as 2.6.
As to `CC(C)Oc1ccc(C(=O)N[C@H](Cc2c[nH]cn2)C(=O)O)cn1`, the “% Inhibition” value is on record as -9% and the Z score was found to be 1.49.
For `CCN(C)c1cc(N2CCC3(CC2)OCCc2c3[nH]c3ccccc23)ncn1`, in that order: 4% and -0.65.
For `Nc1nc(NC[C@@H](c2ccccc2)N2CCCCCC2)c2[nH]cnc2n1`, the “% Inhibition” value is -9% and the Z score worked out at 2.
Turning to `O=C(Cc1c[nH]c2ccccc12)Nc1ccc(Nc2ccc(-n3cccn3)nn2)cc1`, the “% Inhibition” value worked out at 8% and the Z score is recorded as -1.32.
The corresponding values for `O=C(N1CCn2ncnc2C1)C1(c2cccc(Br)c2)CCCCC1` are -4% and 0.63.
Consider `CN1CCN(c2ccnc(-c3noc([C@]4(C)CC=CCC4)n3)c2)CC1`, for which the “% Inhibition” value worked out at 0% and the Z score is recorded as 0.06.
For `Cc1ccnc(OC[C@H]2CC(=O)N(CC3CCN(CCCc4ccccc4)CC3)C2)c1`, in that order: 5% and -0.87.
For `COc1cc(CNC2(c3cccc(F)c3)CCOCC2)ccc1C`, in that order: -12% and 2.65.
Turning to `CN(C(=O)[C@H]1CC[C@H](Nc2cnccn2)CC1)C1CCNCC1`, the “% Inhibition” value is reported as -1% and the Z score worked out at 0.25.
For `Cc1nncn1CCN1CCC[C@H](CNC(=O)c2ccnc3ccccc23)C1`, in that order: 5% and -0.83.
For the molecule `Cc1ccoc1C(=O)NCCCNc1nc2ccccc2[nH]1`, the “% Inhibition” value is 0% and the Z score was -0.01.
For `Fc1cnc(Nc2cnn(CCN3CCCCC3)c2)nc1`, in that order: -5% and 0.8.
The corresponding values for `Cc1nn(C)c(C)c1CN(C(=O)c1cnc(N2CCOCC2)nc1)C1CC1` are -5% and 0.91.
For `Cc1ccsc1CN(C)C(=O)c1coc(COc2ccc3ncccc3c2)n1`, in that order: -5% and 1.05.
Turning to `CC1(C)C2CC(NCc3ccc(Oc4ccc(F)cc4)nc3)[C@](C)(O)C1C2` (stereo partly drawn), the “% Inhibition” value is reported as -11% and the Z score worked out at 1.65.
The corresponding values for `Nc1ccc2[nH]c(-c3ccc(Cl)cn3)nc2c1` are 6% and -1.11.
For `c1ccc2oc(N3CCN(c4ncnc5cc[nH]c45)CC3)nc2c1`, in that order: 1% and -0.16.
The corresponding values for `Cc1cccc(OC2CN(Cc3ccc4[nH]ccc4c3)C2)c1` are -6% and 1.24.
Consider `Fc1ccc(Oc2cc(N3CCN(CCN4CCOCC4)CC3)ncn2)c(Cl)c1`, for which the “% Inhibition” value is -4% and the Z score is listed as 0.72.
With `OCc1cccc(CNCc2cnc3c(-c4ccccc4)cnn3c2)c1`, the “% Inhibition” value amounted to 0% and the Z score is on record as -0.01.
The corresponding values for `CC1CCN(C[C@H](C)NC(=O)c2ccc3cnccc3c2)CC1` are 2% and -0.29.
The corresponding values for `N#Cc1c(F)cccc1NCCc1nc2cc(F)ccc2s1` are 7% and -1.17.
The corresponding values for `FC(F)(F)c1nccc(NCCN2CCC(c3ccccc3)CC2)n1` are -6% and 1.13.
As for `O=C(C1CCC1)N1CCC(NCCN2CCC(c3ccccc3)CC2)CC1`, the “% Inhibition” value is listed as -17% and the Z score amounted to 2.91.
The corresponding values for `COc1cccc(CNCCN2CCC[C@H](O)C2)c1OCCn1ccnc1` are -2% and 0.42.
With `COc1cccc(-c2nc3cc(C#N)ccc3[nH]2)n1`, the “% Inhibition” value is listed as 0% and the Z score came out at 0.04.
The corresponding values for `O[C@@H](CNc1nc2cnccc2s1)c1ccc(C(F)(F)F)cc1` are -5% and 0.69.
For `CN(CC[C@H]1CCCCN1C)C(=O)c1cncc(-c2cnn(C)c2)c1`, in that order: -4% and 0.74.
Turning to `Cc1ncc(Cl)c(NCc2cc(C(C)(C)C)n[nH]2)n1`, the “% Inhibition” value is -9% and the Z score was 1.51.
For `COc1cc(-c2nc3c(cnn3C3CCCCC3)[nH]2)ccc1O`, in that order: -2% and 0.42.
For `Nc1nc(NCCO)cc(N2CCC(n3c(=O)[nH]c4ccccc43)CC2)n1`, in that order: 2% and -0.38.
`c1cncc(-c2ccc(CNC3CCN(Cc4cccs4)CC3)cc2)c1`: the “% Inhibition” value is 37% and the Z score is listed as -8.03.
With `CC(C)(C(=O)NCC1(CCO)CC1)c1c[nH]cn1`, the “% Inhibition” value was determined as 0% and the Z score is listed as 0.05.
The corresponding values for `CC(C)OCCN1CCN(c2ncc(F)c(NCC(F)F)n2)CC1` are 2% and -0.4.
The corresponding values for `O[C@H]1CCCN(CCCNc2cc(N3CCCCC3)ncn2)C1` are -2% and 0.45.
For `O=C(CC1CCCC1)Nc1cccc(N2CCC(NC[C@@H](c3ccccn3)N3CCOCC3)CC2)c1`, in that order: -6% and 1.17.
In the case of `CCOc1ccc2nc(N3CCCN(Cc4c(C)nn(CC)c4C)CC3)nc(C)c2c1`, the “% Inhibition” value is 22% and the Z score was -4.29.
The corresponding values for `O=C(Nc1cncnc1N1CCCC1)[C@H]1CCCN(CC(F)(F)F)C1` are -15% and 2.28.
For `CN1CC[C@@H](CNc2cnc3cc(F)c(F)cc3n2)[C@@H]1c1cccnc1`, in that order: -5% and 0.99.
As to `CC1CCN(CC(O)CNC2CCCN(c3cccnn3)C2)CC1` (stereo not drawn), the “% Inhibition” value is -12% and the Z score turned out to be 2.15.
The corresponding values for `CN1CCCC(C(=O)N2CCC(Oc3cncc(N(C)C)n3)C2)C1` (stereo not drawn) are 3% and -0.58.
`O=C1COc2cc(S(=O)(=O)Oc3ccc(Cl)c4cccnc34)c(Cl)cc2N1`: the “% Inhibition” value was -3% and the Z score is listed as 0.6.
The corresponding values for `CCc1[nH]ncc1C(=O)NCCc1ncn(C)c1Br` are 0% and -0.03.
The corresponding values for `Cc1ccn(CCN2CCC(N3CCC[C@H](C(=O)N4CCOCC4)C3)CC2)n1` are -8% and 1.36.
For `Cn1nc(C#CCN2CCOCC2)c(C#CCN2CCOCC2)c1C#CCN1CCOCC1`, the “% Inhibition” value is listed as -5% and the Z score was 0.95.
The corresponding values for `CC(C)(C)OC(=O)N1CCC(CC(=O)Nc2ccccc2-c2nc3ccccc3[nH]2)CC1` are -9% and 1.48.
For `Cc1nccn1-c1cncc(NCCCN2CCCO[C@@H](C)C2)n1`, in that order: -13% and 1.9.
For `COC(=O)c1ccc(C)c(Nc2ncnc(NC3CCCC3)c2C#N)c1`, in that order: -9% and 1.34.
Regarding `CCCC1COCC2CN(C(=O)c3ccnc4ccccc34)CCN12` (stereo not drawn), the “% Inhibition” value was -1% and the Z score is 0.16.
The corresponding values for `Cc1cnccc1NCCNc1ncc(F)c(N2CCCC2)n1` are 25% and -3.87.
For `CCN1C[C@@H](CN(C)c2cc(C)nc3ccc(C(F)(F)F)cc23)CC1=O`, in that order: 0% and 0.08.
For `C[C@H]1c2nc(N)nc(-c3ccncc3)c2CN1Cc1ccnc2ccccc12`, in that order: -7% and 1.32.
Regarding `CC(C)C1OCCCC1Nc1cc(N2CCC(n3ccnc3)CC2)ncn1` (stereo not drawn), the “% Inhibition” value is given as -14% and the Z score came to 3.08.
The corresponding values for `CN1CCC(N2CCN(C(=O)c3cc(F)ccc3OCCCN)CC2)CC1` are 8% and -1.59.
For `C#Cc1ccc(C(=O)N2C[C@H](N(C)C)C3(CCOCC3)C2)cc1`, in that order: 0% and -0.1.
For `c1cc2cc(-c3cnn(CC4CCNCC4)c3)cnc2[nH]1`, in that order: -2% and 0.24.
For the molecule `COc1ccc2[nH]c(CNC(=O)[C@]3(C)CCc4c(C)c(O)c(C)c(C)c4O3)cc2c1`, the “% Inhibition” value is listed as -8% and the Z score came out at 1.62.
`Cc1nc2c([nH]1)CC[C@H](C(=O)Nc1cc(C(C)(C)C)no1)C2`: the “% Inhibition” value is given as 2% and the Z score is -0.31.
The corresponding values for `O=S(=O)(Nc1cncc(N2CCCC2)n1)c1c[nH]c2ccccc12` are -2% and 0.31.
`CC(=O)N1CC2CCC(C1)N(C(=O)COc1ccc3ccccc3c1)C2` (stereo not drawn): the “% Inhibition” value worked out at 0% and the Z score is recorded as -0.03.
For `OCC[C@H]1CN(c2cc(N3CCCCC3)ncn2)CCN1C1CCCCC1`, in that order: -24% and 4.72.
